# Measurements published in the supplement of paper PMC11417369.
# ± gives the standard deviation of the averaged measurements. Some of the results follow.
# Test system: PfAP2-G AP2 domain (GST-tagged)
# Assay: gcPBM binding intensity (ln(normalized median fluorescence intensity)); higher = stronger DNA binding
# How it was run: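 For binding intensity, the highest Masliner-normalised natural-log median intensity across replicate spots of either probe orientation was taken. Protein bound to the array was stained with Alexa488 anti-GST antibody and scanned at 488 nm. The protein, GST-tagged P. falciparum DNA-binding domains from E. coli at about 25 μg on average, had been applied for 1 h to an Agilent 4 × 180k array of primer-extended double-stranded 36-bp intergenic genomic probes and negative controls.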
row,Sequence,gcPBM binding intensity (ln)
1,TTGTATTCATATGGTTGTACATATTAAAAGTTCTAA [XGTACX_site7255],11.1 ± 0.67
2,TTAATATAAATATGATTTTTGATTCCTATACTATTT [CACACA_negctrl_site752],9.765 ± 0.078
3,ATATATATAACAAAAGTGCATTAAGGGGATGCTATA,10.1 ± 0.2
4,TTATTATAAATAGGTAGTACATTTTGAACAAATATT [XGTACX_site8866],11.5 ± 0.95
5,AATATAAATATAGGAAATGTAGTTAAAAGGTGTATG [CACACA_negctrl_site1233],10.13 ± 0.035
6,TTTATTTTTAAAGGCACACACATTTTTATTTTTAAA [CACACA_site2021],10.1 ± 0.19
7,TTCTTTTTTTTCAGTTGTACTTATAAGAAAGAAAAA [XGTACX_site4028],11.5 ± 1
8,TTTATTTATAGAATTACACACATATATACACAAATG [CACACA_site7338],10.3 ± 0.26
9,ATTCTATAGAAACACACACACATGCATGCACCTATA [CACACA_site107],10.2 ± 0.26
10,TTATATATATATGTATGTACTTATAACTTTTATTAG [XGTACX_site3190],11.2 ± 0.83
11,ATACGACAAATATAAAGTACAAGCTTGGTTTTTATA [XGTACX_site8103],11.2 ± 0.88
12,TATGCAAGGAACCACACACACACACGGAAATGTATA [CACACA_site6490],10.3 ± 0.3
13,AATTATGGGGAAAAGACACACATATATATATATATA [CACACA_site2589],10.2 ± 0.54
14,ATATATATATATAACACACGCAAAAAAATTAAATAA [CACACA_site1400],10.4 ± 0.57
15,TATGGGTATGTATTCACACATAACAAAAATATCAAA [CACACA_site5059],10.2 ± 0.22
16,TTTTATATATTCAATTGTACATGTATTTTTTTTTTT [XGTACX_site3584],11 ± 0.63
17,ATAAATTTACTTGATTGTACATTTCTTAGTTGTATT [XGTACX_site3057],10.8 ± 0.48
18,TTATATGTCAATTTGCGTACATACATAATTACATAT [XGTACX_site1546],11.5 ± 1.1
19,AATTTTAATTTTTTGACACACATATAATATATATAT [CACACA_site3978],10.2 ± 0.28
20,TATACTGATAAAAAAAGTACTAGAGTTTGTAAAAAT [XGTACX_site3934],11.2 ± 0.76
21,CACAAGAAAGTTCACACACACACATATATATATATA [CACACA_site6009],10.2 ± 0.33
22,TTAATATTTTTAATTTGTACATATAATTAAATCTCT [XGTACX_site1736],10.9 ± 0.51
23,GAAAATTATGTATATTGTACAAATATTATATTAAAT [XGTACX_site2467],10.7 ± 0.25

row,Sequence,gcPBM binding intensity (ln)
1,TATAAAATTTAAATTATACACACTTAAGTAACATCA [CACACA_site531],10.3 ± 0.25
2,CAAGGACAATTTACAAACATAATATATGTATATATA [TGCATGCA_negctrl_site5],9.995 ± 0.064
3,TTGAATACATATATATGTACATATTCTATGGTTAGA [XGTACX_site4088],11.2 ± 0.79
4,ATCAAACAAAAAATAAAAAAATGCGACATGTGTACA [TGCATGCA_negctrl_site164],11 ± 0.47
5,CTGAGGAAGCTAATTACACACATGCATATTTTTTTT [CACACA_site2177],9.87 ± 0.11
6,ATTATCTTCAAGTATGTACACACTATATATAATAAA [CACACA_site2441],11.3 ± 0.76
7,ATGTAAAAATAAAGATGTACATGTATATATATATAT [XGTACX_site5193],11.2 ± 0.71
8,TTTTTTTTACATGAACGTACATAATATATTTTATAA [XGTACX_site5249],11.1 ± 0.72
9,TGGTGTTTTTTTTAATGTACTTATAAAATAATACAT [XGTACX_site6574],11.4 ± 0.83
10,AATTCCTTATACAATTGTACATAAAAAGAATAAAAA [XGTACX_site1343],11 ± 0.66
11,TTAAAAAAGAATTGTGCACACACAAAAAATGTTCAT [CACACA_site1102],10.4 ± 0.24
12,AATATATATTCATGTGTACACACAAAAAAAAATAAA [CACACA_site8690],11.6 ± 0.84
13,AAAAAAAAAAAAATTACACACATACAGATAATAATA [CACACA_site5244],9.845 ± 0.064
14,CTATTATAAAAATGATGTACACTTATATATACATAT [XGTACX_site6087],11.4 ± 0.64
15,TTTTTTTTTTGAATATGTACTTAAAAAAATTTTTTT [XGTACX_site3851],11.3 ± 0.86
16,TTTTCATTCCACAACGCACACCCATTTAAAAAAAAA [CACACA_site1377],10.5 ± 0.45
17,TAATTTTTTTTTTTTTTTTTTTTTTTTTTTTTTTTA [CACACA_negctrl_site1218],9.59 ± 0.014
18,AAAAAGAAGATGCAAACATGCACACAGAAAAAAAAA [TGCATGCA_site375],10.1 ± 0.13
19,AAAAATATAATATAATGTACACAAAAAAAAAAAATC [XGTACX_site1427],11.4 ± 0.71
20,TATGAAGACACAAATACACACACTCAAAAAAAAAAA [CACACA_site2660],10.1 ± 0.38
21,GAAAAAAAAAAAAAAAAACACACGGTACATTCAAAG [CACACA_site303],10.4 ± 0.16
22,AAAAAATATTTTAGTGGTACATTTGTAGCTCTCAAA [XGTACX_site4859],11.2 ± 0.7
23,AATCAAATATTTAAATGTACTCAAGAAGGCTTAATC [XGTACX_site6907],11.4 ± 1

row,Sequence,gcPBM binding intensity (ln)
1,ATAACATGAACATATGTTACACAAACATACATACAT [XGTACX_negctrl_site365],10.3 ± 0.21
2,AAATTATAATTAGGAACACACATATATATATATATA [CACACA_site3098],10.3 ± 0.46
3,TACATACATACATACATACACACATATATATATATA [CACACA_site1996],10.6 ± 0.37
4,TACATGTATAATATAATACACACTATATAATATACA [CACACA_site2239],9.98 ± 0.18
5,TTATTGTTTATTAAATGTACAGATTCGTTAAAATTA [XGTACX_site3041],11 ± 0.54
6,TAAATAAATACATACACACACATACATATATATATA [CACACA_site3129],10.2 ± 0.4
7,TACACAAAACATAAAAGTACATAATAATAAAGTTAA [XGTACX_site8872],11.3 ± 0.6
8,GAACAAATAAAAAGGAGTACAATCAAATCTACGTAT [XGTACX_site343],11.6 ± 0.89
9,ACAACAATATGGAATTGTACATATATATATAAATAT [XGTACX_site3139],10.8 ± 0.53
10,TATTTTTTTGTGTTTGGTACACACGTTATAAAAAAT [XGTACX_site2655],11.2 ± 0.8
11,CTAGCAAATACATACACACACACACCCATACATATA [CACACA_site3496],10.2 ± 0.25
12,CACTAAAATGGACACACACACACACCGATATATATA [CACACA_site6139],11 ± 0.69
13,ATCGCATAAAGACAAGAACACACATATATATTGTAG [CACACA_site9229],9.995 ± 0.007
14,AATAAATATAGGAATACACACAATATAAATGTATTG [CACACA_site3366],10.02 ± 0.071
15,TTATAATAAATATGAAGTACTATAAATATGGTATAT [XGTACX_site5448],11.2 ± 0.63
16,ATTTGGCATAAACACACACACACACCCACCCACATA [CACACA_site8096],10.6 ± 0.38
17,TTTTTATTGAGAACAGTGCAAATAACAAAAAAAAAA,10.3 ± 0.2
18,TGGAAAATTATAAGGTGTACATATAAGCTATTATAT [XGTACX_site118],11.5 ± 0.79
19,TTTTTTTTTTTAAGGTGTACAATAAAAATTTATGCA [XGTACX_site8860],11.6 ± 0.93
20,CATTTTTTAAGCATCACACACGAAAGAACAAAGTGG [CACACA_site4755],10.6 ± 0.38
21,CATATATAAAATATATGTACTTATAGAACATAATTT [XGTACX_site1936],11.3 ± 0.45
22,ACTTTTTCACATAAAAATGATCCGATTAGTAATAAT [XGTACX_negctrl_site248],9.97 ± 0.11
23,AAATAAAAAAACTATTGTACTGAATACAAATTAAAT [XGTACX_site3793],10.8 ± 0.47

row,Sequence,gcPBM binding intensity (ln)
1,ATAATATTAGTAAACACACTCAAATTATATATGATA [CACACA_site5721],9.92 ± 0.099
2,AGGAATAAATAATTAACACACACAATCTTTTTTTTT [CACACA_site9027],9.74 ± 0.13
3,TAATAAGTATAAAATAGTACATATAAATATATCAAA [XGTACX_site8834],11 ± 0.73
4,ATAATTATATTCCATACACACATATATTTAAAGGTT [CACACA_site2957],10.1 ± 0.11
5,AGTATACATTCATTTTGTACTCAATGATTTGATAAC [XGTACX_site6787],11.1 ± 0.67
6,TATTTATTTATATTTACACACATTCATATAAATTCA [CACACA_site7628],9.915 ± 0.078
7,TTTTTTTTTTTATCTGCACACCCTTTTGTGAATATT [CACACA_site789],10.2 ± 0.33
8,TCTGAGAATGATAAAAAAAAAAAAAATGAAAAATTA [CACACA_negctrl_site1478],9.52 ± 0.028
9,ACGATATTTTTGGTGACACACATATATATATATATA [CACACA_site126],10.4 ± 0.32
10,CATTATGTTGTAAATACACACATACCTATACATACA [CACACA_site6485],10.2 ± 0.15
11,AACAATCAAATAGACACACACACACCCAAACATAAA [CACACA_site2757],10.2 ± 0.4
12,CTCCTACAAATATGTAGTACATTCAAAATAAATACC [XGTACX_site8207],11.6 ± 0.91
13,AATGAGCGTTAAAAATGTACAGAAAATTGGAATTAT [XGTACX_site5743],10.8 ± 0.54
14,AAAACTTTTAGTTATACACACAACATAGAAAATATT [CACACA_site6287],10.2 ± 0.12
15,AATTATTATATATATATATATATATATTTATATATT [GTGCAC_negctrl_site387],9.53 ± 0.14
16,AGTTCAAGGATTAAGACACACATATAAATAAATAAA [CACACA_site3662],10.1 ± 0.33
17,AAATAAAATAATTATAATACTAAAAATAATACATAA [GTGCAC_negctrl_site106],10.03 ± 0.099
18,TTTTTTTTGTAGAATTGTACTTATAAAATATATATA [XGTACX_site2116],11.1 ± 0.75
19,AAAAAATGGATGATCACACACTTCATAAAAGTTGCA [CACACA_site7109],9.87 ± 0.11
20,ATGCAATAAATATACACACACAAATCTATATTTATA [CACACA_site7179],9.93 ± 0.12
